# Experimental data taken from PubChem BioAssay AID2451 (National Center for Advancing Translational Sciences (NCATS), 2010).
# Values joined by “and” are separate entries in the source; they are usually repeats but may differ in a detail not shown here. Equal values may be shown once. About 2,100 (0.72%) of roughly 290,000 compounds were called active. The shares of active, inactive and inconclusive entries below differ from those in the screen. Calls come from the whole dose curve; as a rule, active = well fitted inhibition curve with a large enough effect; inconclusive = small, poorly fitted or top-dose-only effect, or effect the other way; inactive = flat fitted curve, though single readings scatter. Potencies of inconclusive entries are doubtful fits and often do not repeat.
# Biological target: Fructose-bisphosphate aldolase (Giardia intestinalis (strain ATCC 50803 / WB clone C6)) (UniProt A8B2U2)
# UniProt A8B2U2, sequence (A8B2U2 whole entry, looked up): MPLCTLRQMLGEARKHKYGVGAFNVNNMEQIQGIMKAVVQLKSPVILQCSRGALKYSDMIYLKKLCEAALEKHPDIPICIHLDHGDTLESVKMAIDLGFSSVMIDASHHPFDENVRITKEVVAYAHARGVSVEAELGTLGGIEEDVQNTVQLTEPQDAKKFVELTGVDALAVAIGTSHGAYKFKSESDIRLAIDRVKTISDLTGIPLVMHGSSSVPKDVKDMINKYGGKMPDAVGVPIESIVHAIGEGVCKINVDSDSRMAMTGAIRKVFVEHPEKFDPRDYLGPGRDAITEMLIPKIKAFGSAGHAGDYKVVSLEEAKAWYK
# Assay: qHTS Assay for Inhibitors of Fructose-1,6-bisphosphate Aldolase from Giardia Lamblia; note: nearly all actives have a fitted effect of over 55% in size
# Settings: purified Giardia FBPA; series mostly up to 59.6 µM
# In short: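 Giardia FBPA (40 nM reagent) was preincubated 10 min at RT with compound (up to 57.5 uM final), then substrate plus GAPDH/TPI/NAD/arsenate coupling system with diaphorase/resazurin was added; resorufin fluorescence (525/598 nm) was read after 20 min.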
# Potency is the fitted concentration of half-maximal effect; tags give direction and shape of the fitted curve.
row,Structure (SMILES),Potency
1,CNC(=S)NNC(=O)c1cn(C)nc1C,"inconclusive: 25.1 µM [inhibitor, single point]"
2,Oc1ccccc1N=Cc1c(O)ccc2ccccc12,"inconclusive: 15.8 µM [inhibitor, partial curve]"
3,CCn1c(N2CCN(Cc3ccc([N+](=O)[O-])cc3)CC2)nc2ccccc21,"inconclusive: 25.1 µM [inhibitor, single point]"
4,COC(=O)c1sc2cc([N+](=O)[O-])cc(SCC(C)C)c2c1N,inactive
5,CC(=O)c1c(C)c(C)c2n1CCn1c(C)ccc1-2,"inconclusive: 19.9 µM [inhibitor, partial curve]"
6,CC(C)OC(=O)C(C(=O)C(F)(F)F)c1cc(NS(=O)(=O)c2ccc3ccccc3c2)c2ccccc2c1O (centres undefined),"inconclusive: 17.7 µM [inhibitor, partial curve]"
7,O=C(c1ccncc1)N1CCC2(CCN(Cc3nccs3)CC2)CC1,inactive
8,COCc1cc(=O)[nH]c(SCCS(=O)(=O)c2ccc(Cl)cc2Cl)n1,"inconclusive: 3.97 µM [inhibitor, full curve]"
9,Cc1ccc(C2C3C(=O)N(c4ccccc4)C(=O)C3N3CCCN23)cc1 (centres undefined),inactive
10,Cn1c(-c2ccccc2)cnc1NCc1cccc([N+](=O)[O-])c1,"inconclusive: 25.1 µM [inhibitor, partial curve]"
11,O=C(c1ccccc1NS(=O)(=O)c1cccc([N+](=O)[O-])c1)N1CCCC1,inactive
12,Cc1cccc(C)c1N/C=C/c1onc(C)c1[N+](=O)[O-],inactive
13,O=C(Nc1cccn(Cc2cccc(F)c2)c1=O)NC1CCCCC1,"inconclusive: 22.3 µM [inhibitor, single point]"
14,O=c1cc(-c2ccccc2)oc2cc(O)c(O)c(O)c12,active: 5 µM and active: 7.92 µM and active: 9.98 µM
15,O=[N+]([O-])c1nn(-c2ccc3c(c2)OCCO3)n(O)c1=NC1CCCCCC1,inactive
16,CCCn1c(=N)n(CC(=O)c2ccc([N+](=O)[O-])cc2)c2ccccc21,"inconclusive: 17.7 µM [inhibitor, partial curve]"
17,CCC(=O)NC(c1ccc(Cl)cc1Cl)c1ccc2cccnc2c1O (centres undefined),"inconclusive: 20 µM [activator, partial curve]"
18,COc1ccc(CCNCC2CCCO2)cc1 (centres undefined),"inconclusive: 12.6 µM [inhibitor, partial curve, poor fit]"
19,Fc1ccccc1N1CCN(Cc2ccc3c(c2)OCO3)CC1,"inconclusive: 19.9 µM [inhibitor, partial curve]"
20,COC(=O)c1sc(-c2ccccc2)cc1NC(=O)C1CC1,inactive
21,O=C1CSC(=S)N1/N=C/c1ccc(C(F)(F)F)cc1,"inconclusive: 20 µM [inhibitor, partial curve]"
22,Cc1cccc(NC(=O)/C=C/c2ccc([N+](=O)[O-])s2)c1,inactive
23,CCOC(=O)N1CCC(=NNc2ncc(C(F)(F)F)cc2Cl)CC1,"inconclusive: 22.3 µM [inhibitor, partial curve]"
24,CCN(CC)c1ccc(N=Nc2ncn[nH]2)cc1,active: 3.54 µM
25,COc1ccc(Br)cc1/C=N/NC(=O)CNC(=O)C1COc2ccccc2O1 (centres undefined),"inconclusive: 25.1 µM [inhibitor, single point]"

row,Structure (SMILES),Potency
1,COc1ccccc1NS(=O)(=O)c1cc(NC(=S)NCCN2CCOCC2)ccc1N1CCOCC1,"inconclusive: 31.5 µM [inhibitor, single point]"
2,Cc1ccc(NC(=O)C2=C(O)CCn3c2nc2ccccc23)cc1,inactive
3,COc1ccc(C(=O)N2CCN(Cc3cc(OC)c(O)c(OC)c3)CC2)cc1OC,"inconclusive: 19.9 µM [inhibitor, partial curve]"
4,O=C(CCN1CCCCC1)Nn1c(=S)[nH]c2ccccc2c1=O,active: 22.3 µM
5,O=C(CSc1nnc(SCc2ccccc2)s1)N/N=C/C=C\c1ccco1,inactive
6,CCOc1cc(/C=N/NC(=O)c2cc(C3CC3)[nH]n2)ccc1O,inactive
7,N#CCOc1nc(N2CCCCC2)nc(N2CCCCC2)n1,inactive
8,COc1cccc2cc(C(=O)NCc3ccco3)c(=O)oc12,inactive
9,O=C(Nc1ccccc1C(=O)O)c1ncn[nH]1,"inconclusive: 14.1 µM [inhibitor, partial curve]"
10,COCCn1c(=S)[nH]c2cc(C(=O)N(CCO)Cc3ccccc3)ccc2c1=O,"inconclusive: 14.1 µM [inhibitor, partial curve]"
11,CC1(c2ccccc2)CC(C)(C)N2C(=O)C3(C(C#N)=C(N)Oc4cc(O)ccc43)c3cccc1c32 (centres undefined),inactive
12,N#CCSc1nnc(C2CCCCC2)n1Cc1ccccc1,inactive
13,COc1ccccc1CN(Cc1nc2ccccc2c(=O)[nH]1)C(=O)Nc1ccccc1C,inactive
14,CCOc1cccc(N2C(=O)/C(=C/c3ccco3)C(=O)NC2=S)c1,inactive
15,O=C1NC(=O)C(=Cc2csc3ccccc23)C(=O)N1,"inconclusive: 17.7 µM [inhibitor, partial curve]"
16,O=[N+]1C2=C(CCCC2)N([O-])C12CCCC2,inactive
17,CCNc1nc2ccccc2[nH]1,inactive
18,COc1ccc(-c2nc(CSCC(=O)N3CCC(C(N)=O)CC3)c(C)o2)cc1OC,inactive
19,CC(=O)c1ccc(NC(=O)CNCc2cccs2)cc1,"inconclusive: 15.8 µM [inhibitor, partial curve]"
20,Clc1ccc(CN2CCSCC2)cc1Cl,"inconclusive: 17.8 µM [inhibitor, partial curve]"
21,COc1cc(OC)cc(C(=O)Nc2cccc(N3CCCC3)c2)c1,"inconclusive: 22.3 µM [inhibitor, partial curve]"
22,Cc1ccccc1Nc1nc(-c2sc(NC(=O)c3ccco3)nc2C)cs1,"inconclusive: 22.4 µM [inhibitor, single point]"
23,NC(=O)c1ccccc1OCC(=O)NS(=O)(=O)c1ccc(Cl)cc1,"inconclusive: 17.7 µM [activator, single point]"
24,CC(/C=N/NC(=O)c1cccnc1)=C\c1ccco1,"inconclusive: 12.6 µM [inhibitor, partial curve]"
